Our source for the inhibition values is PubChem BioAssay AID485344 (National Center for Advancing Translational Sciences (NCATS), 2010).

The whole screen tested about 340,000 compounds, of which about 6,900 (2%) were called active. Rule as the data show it: active = inhibition above about 30%; inactive = below that, where a call was filed. This is a selection; strong and weak results do not stand in their true shares. Entries without a call were filed so in the source.

Chain of UniProt P14416 (P14416 whole entry, looked up): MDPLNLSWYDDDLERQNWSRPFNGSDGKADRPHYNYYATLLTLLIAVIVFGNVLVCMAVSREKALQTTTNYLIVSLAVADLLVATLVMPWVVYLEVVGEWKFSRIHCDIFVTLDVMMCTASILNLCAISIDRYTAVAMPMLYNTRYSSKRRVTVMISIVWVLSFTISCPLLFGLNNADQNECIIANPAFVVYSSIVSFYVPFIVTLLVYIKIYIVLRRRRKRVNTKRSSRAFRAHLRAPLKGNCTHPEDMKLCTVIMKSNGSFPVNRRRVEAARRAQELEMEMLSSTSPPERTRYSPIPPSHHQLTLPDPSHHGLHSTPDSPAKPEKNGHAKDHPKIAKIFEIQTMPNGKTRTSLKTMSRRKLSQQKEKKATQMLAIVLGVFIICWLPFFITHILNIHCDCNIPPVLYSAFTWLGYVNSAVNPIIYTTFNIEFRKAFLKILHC

This experiment addresses D(2) dopamine receptor (Homo sapiens) (UniProt P14416). The experiment can be described thus: HTS Assay for Allosteric Antagonists of the Human D2 Dopamine Receptor: Primary Screen for Antagonists. Also: 0% is about no effect. The settings on record: HEK293 TREx D2 cells, calcium flux, dopamine EC80; at 10 µM; stronger effect = higher value. In a few lines:
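Tetracycline-induced HEK293 T-REx cells expressing D2 force-coupled to calcium signalling were dye-loaded, exposed to compound for 180 s, then challenged with an EC80 of dopamine; calcium flux was followed kinetically for a further 180 s.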
On the technique in general: Calcium flux is commonly read through the fluorescence of an indicator in the cells.
Regarding `COc1ccc(-c2noc(N3CCN(c4ccc(C)cc4)C(C)C3)n2)cc1OC` (centres undefined), the inhibition was -2.13%. `CCOc1ccc(NC(=O)Cn2c(=O)n(CCCC(=O)NCc3ccc4c(c3)OCO4)c(=O)c3ccccc32)cc1`: the inhibition is -1.64%. Under `Cc1ccc(CSc2ncc(Cl)c(C(=O)Oc3ccc(F)cc3)n2)cc1` stands 6.06%; under `O=C(NCCc1ccc(Cl)cc1)c1ccc2c(c1)N(Cc1c(F)cccc1Cl)C(=O)CS2`, -3.97%; under `COC(=O)c1c(C)oc2ccc(N(C(=O)Oc3ccccc3)S(=O)(=O)c3ccc(C(C)(C)C)cc3)cc12`, 6.47%. Regarding `Cc1c(C)n(C)c2ccc(C(=O)NCCc3ccc(Cl)cc3)cc12`, the inhibition amounted to 20.3%. With `Cc1ccc(NC(=O)C2CCCN(S(=O)(=O)c3c(C)n[nH]c3C)C2)cc1Cl` (centres undefined) the figure was -13.3%; with `CC1=C(C(=O)Nc2cc(Cl)ccc2C)C(c2ccco2)n2ncnc2N1` (centres undefined), 14.2%. Take `O=C(CSc1nc2c([nH]c3ccccc32)c(=O)n1-c1ccc(F)cc1)NCc1ccco1`: the inhibition was 13.5%. Consider `Cc1nc2ccccc2c(=O)n1CCCO`, for which the inhibition was active: 31.9%.

Consider `CCSc1nnc2c(n1)OC(c1sccc1C)N(C(C)=O)c1ccccc1-2` (centres undefined), for which the inhibition came out at 9.95%. With `O=C(c1ccc2c3c(cccc13)CC2)C1CCCN(Cc2ccccn2)C1` (centres undefined), the inhibition was active: 36.7%.

Turning to `CCOC(=O)C1CCCN(S(=O)(=O)c2cc3c(cc2C)NC(=O)CO3)C1` (centres undefined), the inhibition is -22.6%.

Turning to `O=C(NCc1cccc(F)c1)c1ccc2nc(N3CCCCC3)sc2c1`, the inhibition is 0.409%.

With `COc1ccc(Cn2c(=O)c3oc4ccccc4c3n(Cc3cccc(F)c3)c2=O)cc1`, the inhibition was 2.69%. On to `Cc1ccc(OCC(=O)Nc2ccc3nc(SCC(N)=O)sc3c2)cc1`, for which the inhibition was -3.76%. With `Cc1ccc2c(c1)C1CN(C)CCC1N2S(=O)(=O)c1ccc(C#N)cc1` (centres undefined), the inhibition was active: 39.5%.

As to `O=C(CN1C(=O)CCc2cc(S(=O)(=O)N3CCOCC3)ccc21)NCc1ccccc1Cl`, the inhibition is -11.6%. Regarding `Cc1ccc(N2CC(C(=O)N3CCC(C(=O)Nc4cccc(Br)c4)CC3)CC2=O)cc1` (centres undefined), the inhibition was active: 38.7%. In the case of `CCSc1ncc(Cl)c(C(=O)N(Cc2ccccc2)Cc2ccco2)n1`, the inhibition amounted to 13.2%. `CCCOc1ccc(NC(=O)CC2C(=O)N(c3ccc(C)cc3)C(=O)N2C2CCCC2)cc1` (centres undefined): the inhibition is 1.24%.

Take `Cc1nn(-c2ccc(F)cc2)c(-n2cccc2)c1C(=O)N1CCN(c2ccccc2F)CC1`: the inhibition is 4.85%. Under `CC(=O)Nc1ccc(NS(=O)(=O)c2ccc(Cl)s2)cc1` stands 4.68%; under `Cc1c(C(=O)Nc2ccc(F)c(F)c2)oc2ccc(S(=O)(=O)N3CCC4(CC3)OCCO4)cc12`, -24.8%; under `O=C(Nc1c(-c2ccc(F)cc2)nc2ccccn12)c1cccc(F)c1`, -15.2%.

Turning to `Cc1ccc(C2C=C(c3ccc(F)cc3)Nc3nc(CCCO)nn32)cc1` (centres undefined), the inhibition was -8.03%. Under `CCCCc1ccc(NS(=O)(=O)c2ccc(N3CCCCS3(=O)=O)cc2)cc1` stands -0.48%; under `COc1ccc(OC)c(NC(=O)c2cnc(N3CCCC3)nc2C)c1`, -3.3%; under `Cc1ccc(C(=O)N2CCc3cc(CNC(=O)CCc4ccccc4)ccc32)cc1`, -9.67%. `Cc1cccc2cc(CN(Cc3cccs3)C3(c4nnnn4C4CCCC4)CCCC3)c(=O)[nH]c12`: the inhibition is active: 77.5%. For `O=C(NC1CC(=O)N(c2ccccc2)C1)c1ccco1` (centres undefined), the inhibition turned out to be 23.3%. As to `COc1cccc(C(=O)NCCc2csc(-c3cccc(F)c3)n2)c1OC`, the inhibition amounted to 21.6%. With `COc1ccc(/C=C/C(=O)OCC(=O)c2ccc[nH]2)cc1` the figure was active: 38.1%; with `O=C(Nc1ccc(F)cc1)Nc1ccc2snnc2c1`, -1.92%; with `CCc1cccc(NC(=O)CN(c2ccc(C)cc2)S(=O)(=O)c2cccs2)c1`, 6.52%. `Cc1c(/C=N\NC(=O)c2cc3ccccc3o2)c2ccccc2n1C`: the inhibition is active: 33.1%. With `COc1ccc(Cl)cc1C1CC(=O)Nc2cc3c(cc21)OCCO3` (centres undefined), the inhibition came to 16.5%. As to `CCCCNc1sc(S(=O)(=O)CCC)nc1S(=O)(=O)c1ccc(C)cc1`, the inhibition was -0.817%.

As to `CCOc1ccccc1NC(=O)CCc1c(C)nc2c3cccnc3nn2c1C`, the inhibition is -6.59%. Turning to `CCc1cccc(NC(=O)Cn2ncc3c([nH]c4ccc(C)cc43)c2=O)c1`, the inhibition was -4.91%. For the molecule `Cn1cc(S(=O)(=O)CC(=O)Nc2ccc(Br)cc2)c2ccccc21`, the inhibition is active: 39.2%. Turning to `O=C(CCc1nnc(-c2ccc(-c3ccccc3)cc2)o1)N1CCCCC1`, the inhibition was active: 62.2%. Turning to `Cc1ccc(CN2C(=O)c3ccccc3Sc3ccc(C(=O)NC4CCCC4)cc32)cc1`, the inhibition is -16.9%. Consider `CCNC(=O)c1c2c(nc3ccccc13)C(=O)N(C1CCCCC1)C2`, for which the inhibition was 4.74%. With `O=C(Cn1c(=O)n(CCCS(=O)(=O)C2CCCCC2)c(=O)c2ccccc21)Nc1ccc(F)c(Cl)c1` the figure was -0.293%; with `COc1ccc(C)cc1NC(=O)N1CCN(c2nnc(C)c3c(C)n(-c4ccccc4)nc23)CC1`, 11%; with `COCCCNC(=O)c1nn(-c2ccc(C)cc2)c(=O)n(C)c1=O`, -5.34%. In the case of `O=C(c1cnc(N2CCCCC2)c2ccccc12)N1CCN(c2cccc(Cl)c2)CC1`, the inhibition was 6.35%. With `CCOc1ccc(NC(=O)CC2C(=O)N(c3ccccc3)C(=O)N2Cc2cccc(OC)c2)cc1` (centres undefined) the figure was 2.6%.

As to `O=c1c(N2CCCCC2)csc2ccc(F)cc12`, the inhibition worked out at 4.06%. With `COc1ccc(-c2nc3ccccc3s2)cc1NC(=O)COc1cccc(C)c1` the figure was 1.52%. For `CCc1nc2ccc(C(=O)NCc3cccc(Br)c3)cc2nc1CC`, the inhibition was found to be 7.41%. For `CCOc1ccc(NC(=O)C(=O)NCCc2ccccc2)cc1`, the inhibition worked out at 3.67%.

As for `CCc1ccc(S(=O)(=O)Nc2cc3c(cc2N2CCOCC2)n(C)c(=O)c(=O)n3C)cc1`, the inhibition was found to be 10.8%. Under `CCOc1ccc2nc(NC(=O)c3ccccc3)sc2c1` stands 0.982%; under `O=C(Cn1ncc2c3ccccc3n(Cc3ccccc3F)c2c1=O)NCCCc1ccccc1`, -0.487%; under `COC(=O)c1ccccc1NC(=O)CSc1nc2nc(C)cc(C)n2n1`, -6.96%. For the molecule `CCSc1nc2ccccc2n1CCC(=O)O`, the inhibition was active: 44.7%. For `CCOc1ccccc1C(=O)N(Cc1ccco1)Cc1ccccc1F`, the inhibition came out at 4.9%.

`Cc1ccc(C(=O)Nc2ccc(Br)cc2)cc1S(=O)(=O)NCc1ccccc1`: the inhibition was -3.62%. As for `Cc1ccc(-n2c(SCC(=O)Nc3ccc4c(c3)OCCO4)nc3c([nH]c4ccccc43)c2=O)cc1`, the inhibition is -0.285%. Consider `Cc1cccc(NS(=O)(=O)c2nnc(NC(=O)c3cccc(C)c3)s2)c1`, for which the inhibition amounted to 0.707%. With `COCCNC(=O)c1ccc(-c2nc(CN3CCc4ccccc43)c(C)o2)cc1` the figure was 8.49%; with `CCCCNC(=O)Cn1cnc2sc(C)c(S(=O)(=O)N3CCN(c4ccccc4OC)CC3)c2c1=O`, -5.38%; with `COc1ccccc1NC(=O)c1ncoc1-c1ccco1`, 5.9%. Under `CC(C)OCCCNC(=O)CN1C(=O)COc2ccc(S(=O)(=O)N3CCOCC3)cc21` stands -7.34%; under `Cc1csc2nc(COC(=O)c3ccc(NC(=O)C(C)C)cc3)cc(=O)n12`, -10.3%. As for `CN(C(=O)CN1C(=O)C2C3CC(C(Br)C3Br)C2C1=O)C1CCCCC1` (centres undefined), the inhibition was active: 30.8%. As to `CCn1c(=O)c2sccc2n2c(CCC(=O)NCc3ccc(Cl)cc3)nnc12`, the inhibition was -1.25%.

With `N#Cc1ccc(CSc2nnc(-c3ccc(Br)cc3)o2)cc1`, the inhibition is -3.95%. Consider `CCS(=O)(=O)c1ccccc1C(=O)N1CCN(c2nc3ccccc3s2)CC1`, for which the inhibition was -24.4%. Under `COc1ccc(CNC(=O)CCCN2C(=O)c3cccnc3Oc3ccc(Cl)cc32)cc1` stands 10%. Consider `CCOC(=O)C1CCN(C(=O)Cn2ncc3c4ccccc4n(C)c3c2=O)CC1`, for which the inhibition amounted to 9.12%. On to `Cc1oc(-c2cccc(Cl)c2)nc1CSCC(=O)NCc1ccccc1Cl`, for which the inhibition was -17.7%. Turning to `COc1ccccc1Cn1c(SCC(=O)C(C)(C)C)nc2ccccc2c1=O`, the inhibition was 8.06%.

With `CCOC(=O)c1c(C)oc2nc(C)nc(N3CCN(c4ccc(OC)cc4)CC3)c12`, the inhibition was -10.4%. In the case of `COC(=O)CN1C(C(=O)c2ccccc2)=C(OC(=O)c2ccc(C)cc2)c2ccccc2S1(=O)=O`, the inhibition is 12.2%. Consider `Clc1cccc(CSc2ccc(-c3cccs3)nn2)c1`, for which the inhibition was found to be 20.7%.

As for `O=C(c1cccn1-c1nnc(N2CCCCC2)s1)N1CCN(c2ccccc2)CC1`, the inhibition was -6.19%. In the case of `CCOC(=O)c1c(C)oc2ncnc(Nc3cc(Cl)ccc3OC)c12`, the inhibition is -5.17%.

As for `Cc1ccc2nc(COc3ccccc3NC(=O)COc3ccccc3Cl)cc(=O)n2c1`, the inhibition is -23.3%. On to `CSc1ncc(C(=O)NCc2ccc(C)cc2)c(-c2ccccc2)n1`, for which the inhibition was determined as 10.5%. For the molecule `Cc1ccc(CNC(=O)C2CCN(S(=O)(=O)c3c(C)noc3/C=C/c3c(C)cc(C)cc3C)CC2)cc1`, the inhibition is 18.4%. `CCOc1cccc(NC(=O)C2CC(=O)N(C)C(=Nc3ccc(F)cc3)S2)c1` (centres undefined): the inhibition came out at 26.9%. For `CCOc1ccccc1NC(=O)CN1C(=O)COc2ccc(S(=O)(=O)N3CCCCC3)cc21`, the inhibition stood at 9.26%.

Regarding `Cn1cc(C(c2ccccc2)c2ccc(Cl)s2)c2ccccc21` (centres undefined), the inhibition came to 2.38%. With `Cn1c(=O)c(NC2CCCCC2)c2c3c(cccc31)C(=O)c1ccccc1-2`, the inhibition was active: 59.6%. For the molecule `CCOC(=O)c1ccc(NC(=O)Cn2ncc3c(C)n(Cc4ccccc4F)c(C)c3c2=O)cc1`, the inhibition is -3.31%. With `COC(=O)c1ccc(NC(=O)Cn2c(=O)nc(-c3ccccc3)c3ccccc32)cc1`, the inhibition was -23.7%. As for `COc1cc2ccccc2cc1C(=O)Nc1ccc2oc(-c3ccc(Cl)cc3)nc2c1`, the inhibition amounted to 3.01%. Regarding `Cc1ccc2c(=O)cc(C(=O)Nc3c(C(=O)Nc4cccc(Cl)c4)oc4ccccc34)oc2c1`, the inhibition was 9.91%.

On to `O=C(Nc1ccc(C(=O)OCc2cc(=O)n3c4c(sc3n2)CCCC4)cc1)c1ccc(Cl)cc1`, for which the inhibition is 0.169%. Under `CC(C)c1ccc(NC(=O)Nc2csc3c2CCCC3)cc1` stands 15%; under `CCCCN(C)CC(O)Cn1cc(/C=C/C(=O)c2ccc(C)cc2)c2ccccc21` (centres undefined), 7.27%; under `Cc1cc(C(=O)NCc2ccc(S(N)(=O)=O)cc2)c(C)o1`, active: 30.5%. In the case of `Cc1ccc(S(=O)(=O)C(CNC(=O)Cc2ccc(Cl)cc2)c2cccs2)cc1` (centres undefined), the inhibition is -2.8%. Take `CCOc1ccc(CNC(=O)c2ccc3c(c2)nnn3C2CCCC2)cc1`: the inhibition is -0.188%.

On to `CCc1ccccc1NC(=O)c1cc2nc(-c3ccc(OC)c(OC)c3)cc(C(F)(F)F)n2n1`, for which the inhibition is 12.8%. With `Cc1cccc(Cn2c(=O)n(Cc3ccc4c(c3)OCO4)c(=O)c3oc4ccccc4c32)c1` the figure was -7.78%.

The inhibition is the relative decrease from the control value, in per cent.
